The other results are listed elsewhere or left out. Sequences were assembled here from the parent chain. Values near 0.05 are background.
B1: TEV protease; numbered along this chain (parent)
chain: MGESLFKGPRDYNPISSSICHLTNESDGHTTSLYGIGFGPFIITNKHLFRRNNGTLVVQSLHGVFKVKDTTTLQQHLVDGRDMIIIRMPKDFPPFPQKLKFREPQREERICLVTTNFQTKSMSSMVSDTSCTFPSGDGIFWKHWIQTKDGQCGSPLVSTRDGFIVGIHSASNFTNTNNYFTSVPKNFMELLTNQEAQQWVSGWRLNADSVLWGGHKVFMVKPEEPFQPVKEATQL

Variants of: B1
Assay: raw area under fraction-flipped curve 0-4 h after induction (AUC4h, not background-subtracted), DNA-recorder readout of cleavage of the substrate (dimensionless); higher = more cleavage of the substrate by the protease variant
Conditions: temperature: 34 °C; time window: 0-4 h after rhamnose induction
Procedure: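 In vivo DNA recorder in E. coli TOP10(DE3) ΔrhaA at 34 °C. Each TEVp single-site mutant (parent TEVp 0) is paired with a single-site variant of the 7-mer TEVs (canonical ENLYFQ|S). The substrate sits between flexible linkers in a Bxb1-sfGFP-TEVs-SsrA fusion, so cleavage stabilises Bxb1 and speeds flipping of a recombination array, read by NGS. The value is the raw area under the fraction-flipped curve over 0-4 h after rhamnose induction (AUC4h), with ≥20 reads per time point. It is not background-subtracted; inactive controls average about 0.047.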
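Note: Bxb1 expression induced with 0.2% (w/v) L-rhamnose at OD600 near 0.5, cultures sampled hourly, flipped fraction per protease–substrate barcode pair counted by paired-end Illumina sequencing.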

| Variant | area with substrate EDLYFQS | area with substrate EKLYFQS | area with substrate ERLYFQS | area with substrate ESLYFQS | area with substrate EVLYFQS | area with substrate EELYFQS | area with substrate EFLYFQS | area with substrate EHLYFQS | area with substrate EILYFQS | area with substrate ELLYFQS |
| --- | --- | --- | --- | --- | --- | --- | --- | --- | --- | --- |
| F6K | 0.115 | 0.0805 | 0.0909 | 0.0936 | 0.102 |  |  |  |  |  |
| G28V | 0.0915 | 0.0705 | 0.0693 | 0.0743 | 0.0777 | 0.142 | 0.0634 | 0.0668 | 0.0727 | 0.0748 |
| T30V | 0.194 |  | 0.107 | 0.148 |  | 0.11 |  |  |  |  |
| L33C | 0.102 | 0.104 | 0.124 | 0.135 | 0.119 | 0.121 |  |  | 0.116 | 0.106 |
| Y34E | 0.0719 | 0.0695 |  | 0.066 |  | 0.0793 |  |  |  |  |
| F49S | 0.0849 | 0.0526 | 0.0666 | 0.0657 | 0.0579 | 0.0647 | 0.0254 | 0.0668 | 0.0692 |  |
| R50F | 0.156 | 0.198 |  | 0.172 |  |  |  | 0.155 | 0.16 | 0.143 |
| K66T | 0.139 | 0.123 | 0.126 |  | 0.112 | 0.17 | 0.102 |  |  |  |
| V67H | 0.121 | 0.0761 |  | 0.0838 | 0.0996 | 0.151 |  | 0.097 | 0.0954 | 0.0937 |
| T70Y | 0.0993 |  | 0.0761 | 0.0669 | 0.0682 |  |  |  | 0.054 | 0.0642 |
| T71D | 0.0964 |  |  |  |  | 0.083 |  |  |  | 0.0696 |
| T71H | 0.1 |  | 0.0983 | 0.0772 | 0.0797 |  |  | 0.0874 | 0.0809 | 0.0585 |
| T71I | 0.123 | 0.0979 | 0.0931 | 0.0879 | 0.0907 |  |  |  | 0.0658 | 0.065 |
| T71Y | 0.11 |  | 0.0876 |  | 0.0906 |  |  | 0.0702 |  | 0.0594 |
| L77M | 0.0782 |  | 0.0778 |  | 0.0674 | 0.0799 |  |  | 0.0654 |  |
| I86A | 0.0833 | 0.0713 |  | 0.0697 | 0.0693 | 0.0805 | 0.0723 |  | 0.0451 |  |
| K100A | 0.115 |  | 0.106 | 0.144 | 0.0805 | 0.146 |  |  | 0.1 |  |
| K100M | 0.164 |  | 0.0944 | 0.0871 |  | 0.131 |  |  | 0.137 |  |
| F101D | 0.0428 |  |  | 0.0579 | 0.032 |  | 0.035 |  |  |  |
| F101Y | 0.0924 |  | 0.048 | 0.0797 | 0.0941 | 0.0974 |  | 0.0804 |  |  |

| Variant | area with substrate EDLYFQS | area with substrate EKLYFQS | area with substrate ERLYFQS | area with substrate ESLYFQS | area with substrate EVLYFQS | area with substrate EELYFQS | area with substrate EFLYFQS | area with substrate EHLYFQS | area with substrate EILYFQS | area with substrate ELLYFQS |
| --- | --- | --- | --- | --- | --- | --- | --- | --- | --- | --- |
| P104E | 0.0425 |  |  | 0.0443 |  | 0.056 |  | 0.049 | 0.0573 | 0.0576 |
| R106L | 0.179 |  |  |  |  | 0.143 |  |  |  |  |
| D128P | 0.119 |  | 0.12 | 0.129 |  |  | 0.127 |  | 0.0915 |  |
| K142Q | 0.148 | 0.141 | 0.106 | 0.0947 |  | 0.104 | 0.0828 |  | 0.0902 | 0.0844 |
| H143M | 0.0842 | 0.0709 | 0.0756 | 0.0664 |  | 0.0607 |  | 0.0743 |  | 0.0506 |
| I145P | 0.0549 |  |  |  |  |  |  |  | 0.0517 |  |
| T147C | 0.0934 | 0.093 |  | 0.0896 | 0.0729 |  |  |  | 0.0631 | 0.0519 |
| D149H | 0.141 | 0.0763 |  | 0.064 |  |  | 0.115 |  | 0.0754 |  |
| Q151F | 0.103 |  |  | 0.0708 |  |  |  |  |  |  |
| F163T | 0.0983 |  |  | 0.0814 |  |  |  |  | 0.0503 |  |
| A170M | 0.0603 |  |  | 0.0559 |  |  |  | 0.0189 | 0.0648 |  |
| T174H | 0.0949 |  |  | 0.0929 | 0.0982 | 0.101 |  | 0.117 | 0.0748 |  |
| N177K | 0.174 | 0.0765 |  | 0.146 |  |  |  |  |  | 0.0931 |
| Y179I | 0.0535 |  |  | 0.0546 |  | 0.0448 |  |  | 0.0485 | 0.054 |
| Y179V | 0.0625 |  |  | 0.0795 |  |  |  |  |  |  |
| F180A | 0.0915 |  | 0.0768 | 0.081 | 0.0824 | 0.0977 |  | 0.0834 | 0.0902 | 0.0837 |
| S182L | 0.0656 | 0.0648 | 0.0622 | 0.0568 | 0.0538 |  |  | 0.0691 |  |  |
| S182T | 0.129 |  |  | 0.119 | 0.0688 |  |  | 0.102 |  |  |
| N186Q | 0.151 |  |  | 0.143 | 0.105 | 0.101 | 0.103 |  | 0.0939 | 0.0982 |
| N186S | 0.17 | 0.112 | 0.0996 |  |  | 0.103 |  |  | 0.0955 |  |

Same assay, conditions: temperature: 34 °C; time window: 0-4 h after rhamnose induction

| Variant | area with substrate EMLYFQS | area with substrate EPLYFQS | area with substrate EQLYFQS | area with substrate ETLYFQS | area with substrate EWLYFQS | area with substrate EGLYFQS | area with substrate EYLYFQS |
| --- | --- | --- | --- | --- | --- | --- | --- |
| G28V | 0.0827 | 0.0809 | 0.0887 | 0.0829 | 0.0702 |  |  |
| T30V |  |  |  | 0.0743 |  | 0.0913 |  |
| L33C | 0.115 | 0.11 |  |  |  |  | 0.0747 |
| Y34E | 0.0717 | 0.0475 | 0.0882 |  |  | 0.0694 |  |
| F49S |  |  | 0.0648 | 0.0522 | 0.0536 | 0.0644 |  |
| R50F |  | 0.149 | 0.14 | 0.0052 |  |  | 0.149 |
| K66T | 0.103 |  | 0.116 | 0.108 |  | 0.12 |  |
| V67H |  | 0.12 | 0.119 | 0.0974 |  |  |  |
| T70Y | 0.0695 |  | 0.0904 | 0.0649 |  | 0.0711 |  |
| T71D |  |  |  |  | 0.0717 |  |  |
| T71H | 0.0974 |  | 0.0798 |  |  |  |  |
| T71I |  |  | 0.0939 |  |  | 0.0902 | 0.0989 |
| T71Y | 0.0791 | 0.0903 | 0.121 |  |  |  |  |
| L77M |  | 0.0825 |  |  |  |  |  |
| I86A | 0.0697 | 0.0854 | 0.0754 | 0.0785 | 0.0806 | 0.0657 | 0.0698 |
| K100A | 0.128 |  | 0.129 |  |  |  |  |
| K100M |  |  | 0.109 |  |  |  | 0.11 |
| F101Y | 0.0864 |  |  |  |  | 0.0733 | 0.086 |
| P104E | 0.0378 | 0.0249 |  |  |  |  |  |

| Variant | area with substrate EMLYFQS | area with substrate EPLYFQS | area with substrate EQLYFQS | area with substrate ETLYFQS | area with substrate EWLYFQS | area with substrate EGLYFQS | area with substrate EYLYFQS |
| --- | --- | --- | --- | --- | --- | --- | --- |
| R106L |  | 0.155 | 0.128 |  |  |  |  |
| D128P |  |  |  |  | 0.106 |  |  |
| K142Q | 0.095 |  |  |  | 0.0818 | 0.0976 |  |
| H143M |  | 0.0672 |  | 0.0771 | 0.0804 |  | 0.0604 |
| I145P |  |  |  |  | 0.062 |  |  |
| T147C |  |  | 0.113 |  |  |  |  |
| D149H | 0.0713 | 0.0711 | 0.0849 |  | 0.0785 |  | 0.0809 |
| Q151F | 0.0806 |  |  |  |  |  |  |
| F163T | 0.098 | 0.0879 |  | 0.106 | 0.096 |  | 0.0837 |
| A170M |  | 0.0662 |  |  |  |  |  |
| T174H | 0.0998 | 0.0822 | 0.099 |  | 0.0687 | 0.0729 | 0.0827 |
| N177K |  |  | 0.132 |  | 0.134 |  |  |
| Y179I |  |  |  |  |  | 0.0632 |  |
| F180A |  | 0.103 |  |  | 0.0698 | 0.0983 |  |
| S182L | 0.0473 |  |  |  |  | 0.0574 |  |
| S182T | 0.108 |  | 0.117 |  | 0.0708 | 0.0952 | 0.109 |
| N186Q |  | 0.141 | 0.0757 |  |  |  |  |
| N186S |  |  | 0.109 |  | 0.0817 | 0.0984 |  |
